Measurements taken from the supplement of paper PMC12632987.
Over roughly 1,800 sequences, “median log2 fold change of GCK-ALFA target abundance (FLAG IP / Myc IP barcode read proportion)” has its median near 0.14; the lowest 2% begin near -0.84. The list shows a part of the results.

T1: TRAF2, Q12933
T1 chain: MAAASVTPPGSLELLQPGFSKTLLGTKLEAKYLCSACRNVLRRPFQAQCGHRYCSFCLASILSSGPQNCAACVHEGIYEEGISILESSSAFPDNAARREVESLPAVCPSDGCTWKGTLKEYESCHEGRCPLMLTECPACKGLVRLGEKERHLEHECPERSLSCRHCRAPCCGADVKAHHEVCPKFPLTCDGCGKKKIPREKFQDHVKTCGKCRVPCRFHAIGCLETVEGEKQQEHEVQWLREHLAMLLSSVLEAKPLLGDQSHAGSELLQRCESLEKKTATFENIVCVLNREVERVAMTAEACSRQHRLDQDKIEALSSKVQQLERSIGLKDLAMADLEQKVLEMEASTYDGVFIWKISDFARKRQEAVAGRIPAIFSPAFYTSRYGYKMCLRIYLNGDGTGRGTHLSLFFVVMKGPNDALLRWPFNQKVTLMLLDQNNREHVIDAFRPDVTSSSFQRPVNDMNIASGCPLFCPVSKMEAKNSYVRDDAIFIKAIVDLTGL

B1: traf2_out_9_108_2583 (protein)
chain: MSEEERLEATFEAVLALVEEFKATNALTPEQLESLDAAIEQAKRLREEGEKRTAIVLLAIDLARIASEVGDEATAALLERLAAIDPRAAAAAARMARLLK
B2: traf2_out_16_104_1426 (protein)
chain: EEEKEKRFEEIIKRYEEIAERANKIANELYKLMQKASPEEKTKLSDALVEASELRRKALEAAIEAEKAKKEGGDLKEMEKKLEELEKRLKELEKKAKELK
B3: traf2_out_9_108_2591 (protein)
chain: MTEEEKLDEIYEKVLALVEEALERFDFPEELREALDASIEQAKKLYENGEKRTAIILLAIDLVSISYELGDEVVEWVLERLEEIDEIAASAARRRYELLK
B4: traf2_out_20_3_2149 (protein)
chain: EELEKELEEELEEALKILKEAAKLADEETAKRLEELAKRLKKSRELSYSDRLVVVSEIRREVRLLQQEALAAGKEELAKLLEEAAEELNRAANLLMKIIE
B5: traf2_out_18_117_1768 (protein)
chain: SERQEVIAELEAIAEELARAASELGRAVLENWEKLTPEEKSEAMDVLADLSEVRRRALLLIQQIREQNLPLEEARAQLEALRVEAEAALARARARLERIR
B6: traf2_out_17_178_1723 (protein)
chain: SKEEYRKKISELTDELIDLSEEAAERLLALAEAEGRLSPEELAALREARRRGSPNDTLALMERAAPRLSSRAEAEALIEEFRRRSRELAKKIAEAYKKYE
B7: traf2_out_1_27_1023 (protein)
chain: SDEALTALIRRTDREIAAVGLEEAREVVREALREAAREGLGDARLVALTLIASQLDKERAEAIREAALEAFRELGAPQEVIDELARRADSIIARQEKVLA
B8: traf2_out_17_162_1545 (protein)
chain: GSLEEKLKKLEEELEKLRKKREELEKKLPELPKLSKEELTDLLVEASEARREARLLAEEIEELKKEIGEEKAKKLAEEARKIAEELQRIANEIYKELEKK
B9: traf2_out_20_3_2157 (protein)
chain: SELEKKAEEALKKAEKLLEEAAKLADPETAKKLKELKKKVEKSKELPYEDRLVVLSEVRREVLALAEAAAAAGKKELAEVLEKAAEALNKAMNLTYKIIE
B10: traf2_out_20_3_2142 (protein)
chain: EELEKKLKEALKAAEKTLKQAAKLADPATAARLDALIARLKASEKLSYEDRLVELSAIRREVLALAVEAEAAGRAELAALLNAAADELNKAMNLLMKIIE
B11: traf2_out_18_167_1884 (protein)
chain: KEELEKKRQEAVDKLVELSALRRALREILAALEESREAARAALDAALAAHPDSAILKEAKTVFETKSDEEFRAFLEAQAEALQKEANKAYQEILELEKEL
B12: traf2_out_16_171_1431 (protein)
chain: SAEEKEKALKEEIDKERDDIIERMETAVEVTPLISKETGLTVEQIAKGFRSTMDDRIEALKKKYEEAAKTASEEVKKYMKERLEEIEKAKEEALKKILEI
B13: traf2_out_3_89_2285 (protein)
chain: SPEREALIREARERARRYVRGFEKSLTFVAKEMVAEGHSLDTLRGVANAAKSAIVEEFRESLKERGLDEETIEELVEELERELDAVVDKILAAAAAARAA
B14: traf2_out_20_3_2081 (protein)
chain: EELKKQAEEARKEAIKILKEAAKLADEETAKKLKELIKKLKESEKLPLSDQLVVLSEVRRELLLLAQEAKAAGNEELAKKLEEAAEAVGRLANLVYKILQ
B15: traf2_out_20_3_2123 (protein)
chain: EELEKELEKEEEKAIKLLKEAAKISDPETAKKLKELIEKLKKSKELSPSDRLVVVSEIRREVRLLAEEAAKAGKKELAEILEKAADALNRAAQLLYEIEK
B16: traf2_out_9_17_2620 (protein)
chain: AAREAALREALLAVTDEILEELIERGLITEEEAEEIRRKVEEAIERGLSPEEVRALFLGSIASILLQPDGLSVKEAQEVVGAVYRRWRERLAAREAAAAA
B17: traf2_out_13_95_1216 (protein)
chain: SAEAKARLREISNRMLDEAEEIVEELAEKAAPFPETAPDMDRIRHALRNYGIRQAIALIREAAAAHPELRELFEEAAERLEELRRRAGREVARVLKEDAE
B18: traf2_out_11_169_793 (protein)
chain: EEAEKNRQINDFALALNDEAKEKLKKEALKLAKEAGLDVEEVKAIFEKNKNASLSYVASELIKYFKSKGKEEEAEAIEKKYEELKEEINKKATAHIKELE
B19: traf2_out_1_27_1020 (protein)
chain: SDAEFTALLRETQRQIAAVDAEEARKVVREAIREAHERGIGDPANLAVALYTSQMDPEMAEAILEAVLEAFRELGVPEEEIERVRRRMDSARARLEKLLA
B20: traf2_out_20_38_2014 (protein)
chain: SEEEEERRREEELIEKAREAYDEAEKWVAELKAKGKSVEEIAEEAKKRVTELLNAAGLEEEAKILVEDIDRVKDSPDAERLIVRILARARTLVFQKELQK
B21: traf2_out_5_63_2360 (protein)
chain: SEREELTALAREADRLVRELLAAARAGDAARVDALLERAVADPELARLVLGILKGEARYYKLRGDQPEEAALAAALAAQLAARMAEAAAAEAAAAAAAAA
B22: traf2_out_1_27_1017 (protein)
chain: SDEELTELIRETDRKIAAVSLEEAKEVVKEALREAYELGPEDAVVLATTLIASQLDEERLEAIREAAVEAFKELGFPQETIDRLKRIADSVLERNKKVAA
B23: traf2_out_6_156_2400 (protein)
chain: MVEKILEETKKKIEELIKELSEASEEKKIAYINRIAGTVYRGLQRLREAGASLEELRKFVEEVLKFTEKKLKEAGIPEDIRNLILSSLNAVGEVALAEAA
B24: traf2_out_13_95_1160 (protein)
chain: SKELAKKIMEIADEMLDESEKILEELLKIAKEKGKLEKEVQEALDLARYRSINEAIHKLEELAKKYPEFKEEFEKAIKKLKELKREAGKKVAKLIKEEEE
B25: traf2_out_20_3_2151 (protein)
chain: SELEEEARRALEEAIRLLAEAAELADPETAAELEELRARVEASRELPPEDRLVVLSEVRRRVLELAERARAAGREELAAVLEEAAEALNRAMQLVYQLIL
B26: traf2_out_20_3_2194 (protein)
chain: SELEKELEKELQKAIKLLEEAAKLADPETAAKLKKLIKRIKESRKLSYSDRLVVLSEVRREVLRLAEEAKKAGKEELAKVLEKAAEALNKAMNILMKIIE
B27: traf2_out_20_3_2170 (protein)
chain: EELEKELEKVLKEAIETLKKAAEKADEETAKKLEELIKRLKESRKLSPEDRLVELSEIRREVLKLAEEAAKKGDEELAKLLEEAADLLNRAMQLEYKIIE
B28: traf2_out_17_162_1521 (protein)
chain: SPLEAELKALEAELEALKKKLEELKKKLENLDKMSKEELTDLLVEASEARRKALELAERLKRLKPLIGEERAGALIAEAEAIAEELQKIANKIYKKLEEK
B29: traf2_out_17_178_1677 (protein)
chain: SKEEERKKISEYTDELIDLTEETGAEFLAIARAEGTLSPEELAALEAARRRGSNRTFLALARRAAPKLKTAEEAQALLDEFEKKARELEKKIAEAYKKYE

Biological target: T1, TRAF2, Q12933
Assay: median log2 fold change of GCK-ALFA target abundance (FLAG IP / Myc IP barcode read proportion) (log2 ratio); each designed protein is fused to an ALFA-tag nanobody in HEK293 cells to bring the named protein to FLAG-tagged glucokinase (GCK); Myc marks an untargeted standard; higher = target protein stabilised (more abundant)
Conditions: target protein: 3xFLAG-MCP-GCK-ALFA reporter; HEK293 landing pad (RPLP)
Procedure: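 LABEL-seq trans screen in HEK293 landing-pad cells. Each de novo designed 100-aa effector handle, binding the indicated effector (E3 ligase, DUB or autophagy protein), is fused to a constant NbALFA target handle and induced with 2 ug/mL doxycycline. A FLAG-MCP-GCK-ALFA target and a Myc-MCP standard reporter were transfected, and after 48 h circRNA barcodes were recovered by anti-FLAG and anti-Myc IP and sequenced. The value is the median across barcodes (at least 3 per design) of log2(FLAG/Myc read-proportion ratio), with the two transfection replicates pooled. Negative values mean degradation and positive values mean stabilisation of the target.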

Binder	median log2 fold change
B1	-0.0764
B2	0.606
B3	-0.0587
B4	0.0353
B5	0.0268
B6	0.389
B7	0.201
B8	0.35
B9	0.34
B10	0.31
B11	0.173
B12	0.175
B13	-0.531
B14	0.0612
B15	0.267
B16	-0.683
B17	-0.484
B18	0.248
B19	0.14
B20	0.392
B21	-0.0509
B22	0.124
B23	-0.0734
B24	-1.21
B25	0.119
B26	0.238
B27	0.361
B28	0.311
B29	0.253
